# Data taken from PubChem BioAssay (NCATS).
# Several values for one entry are separate records, joined by “and”; a condition that tells them apart may be missing. Equal entries are not always repeated. This list was built around the results that the source calls inconclusive (neither active nor inactive); the mix of calls is not that of the screen. Where the call is inconclusive, the potency comes from a doubtful curve fit. Activity calls are given as the source filed them. The call rests on the fitted dose curve; in most records, active means well fitted cell-killing curve with a large enough effect; inconclusive means small, poorly fitted or top-dose-only effect, or effect the other way; inactive means no such curve, though single readings can be large or run the other way.
# How the values were obtained:
# [1] = Viability qHTS for spleen associated tyrosine kinase inhibitor (SYKi) naive MV4-11 cells (AID 1963823); details: MV4-11 AML viability, CellTiter-Glo luminescence, 72 h; series mostly up to 45 µM; further: nearly all actives have a fitted effect of over 40% in size
# Outline: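 SYKi-naive MV4-11 AML cells, 500 per well, were exposed to library compounds for 72 hr at 37 C, 5% CO2. Viability was then read by CellTiter-Glo luminescence after 10 min at room temperature.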
# [2] = Viability qHTS for spleen associated tyrosine kinase inhibitor (SYKi) drug resistant MV4-11 cells (AID 1963824); further: nearly all actives have a fitted effect of over 35% in size
# Outline: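 CellTiter-Glo luminescence, read 10 min after reagent addition, reports viability after a 72 hr compound exposure. Cells are an MV4-11 line made resistant to SYK inhibition, seeded at 500 per well onto compound-containing plates.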
# Potency means the concentration at half of the fitted maximal effect; tags describe the fitted curve by direction and shape.
SMILES,Potency [1],Potency [2]
CCC(CC)CC1(C(=O)Nc2ccccc2SC(=O)C(C)C)CCCCC1,inactive,"inconclusive: 6.51 µM [cytotoxic, single point]"
CC(=O)Nc1ccc(OCC(O)CNC(C)C)cc1 (stereo not given),"inconclusive: 0.0422 µM [cytotoxic, full curve, poor fit]","inconclusive: 3.76 µM [cytotoxic, full curve, poor fit]"
CCC(CC)Nc1nc(C)c(-c2ccc(OC(F)(F)F)cc2OC)nc1OC,"inconclusive: 18.4 µM [cytotoxic, partial curve]","inconclusive: 25.9 µM [cytotoxic, partial curve]"
C=CC1(C)CC2CCC3C(C)(C(=O)O)CCCC3(C)C2=CC1=O (stereo not given),inactive,"inconclusive: 0.404 µM [rising, partial curve, poor fit]"
CC(=O)c1c(O)cc2c(c1C)C(=O)CC(O)C2 (stereo not given),inactive,inactive
COC(=O)[C@@]1(O)C=CC[C@@H]2[C@@]3(C)C[C@@H](c4ccoc4)OC(=O)[C@H]3CC[C@]21C,inactive,inactive
C=CC(C)(C)c1[nH]c2cc3c(cc2c1CC1NC(=O)C2CCCN2C1=O)C=CC(C)(C)O3 (stereo not given),"inconclusive: 5.63 µM [cytotoxic, partial curve, poor fit]",inactive
C=C[C@H]1[C@H](O[C@@H]2O[C@H](CO)[C@@H](O)[C@H](O)[C@H]2O)OC=C(C(=O)OC)[C@H]1CCO,inactive,inactive
CCn1c2ccccc2c2cc(CNC)ccc21,"inconclusive: 23.1 µM [cytotoxic, partial curve] and inconclusive: 10.3 µM [cytotoxic, partial curve]","inconclusive: 16.4 µM [cytotoxic, partial curve] and inconclusive: 20.6 µM [cytotoxic, single point]"
NC(=O)c1cnc(NCCc2ccc(O)c(Cl)c2)nc1NCc1ccccc1,active: 0.0231 µM,active: 0.0259 µM
[2H]C([2H])([2H])C(O)([C@@H](C)/C=C/[C@@H](C)[C@H]1CC[C@H]2/C(=C/C=C3C[C@@H](O)C[C@H](O)C3)CCC[C@]12C)C([2H])([2H])[2H],active: 0.0105 µM,active: 0.468 µM
COC(=O)c1ccccc1O[C@@H]1O[C@H](CO[C@@H]2OC[C@@H](O)[C@H](O)[C@H]2O)[C@@H](O)[C@H](O)[C@H]1O,inactive,inactive
CO[C@H]1/C=C/C=C/C=C/C[C@H](OC(=O)[C@@H](C)NC(=O)C2CCCCC2)[C@H](C)[C@@H](O)/C(C)=C/CCc2cc(O)cc(c2)NC(=O)C1,active: 0.0968 µM,active: 0.109 µM
Oc1cccc(Nc2ncnc3sc4c(c23)CCCC4)c1,active: 4.11 µM,active: 5.8 µM
CNCCN1CCC(c2cc(CN(C)C(=O)c3cccc(Oc4ccccc4)c3)ccn2)CC1,"inconclusive: 7.96 µM [cytotoxic, single point]","inconclusive: 10 µM [cytotoxic, partial curve]"
CO/N=C(/C(=O)N[C@@H]1C(=O)N2C(C(=O)O)=C(Cn3ccc(=N)n3CCO)CS[C@H]12)c1csc(N)n1,"inconclusive: 0.82 µM [cytotoxic, full curve, poor fit]","inconclusive: 0.291 µM [cytotoxic, full curve, poor fit]"
Cc1cccc(N2CCN(C(=O)c3cc(S(=O)(=O)N(C)C)ccc3N3CCCC3)CC2)c1C,"inconclusive: 4.11 µM [cytotoxic, partial curve]","inconclusive: 20.6 µM [cytotoxic, partial curve]"
COc1cc(F)ccc1-c1ncnc(Nc2cccc(CS(C)(=N)=O)c2)n1 (stereo not given),active: 1.16 µM,active: 1.16 µM
CC(=O)[C@H]1CCC2C3CCC4=CC(=O)CC[C@]4(C)C3[C@H](O)C[C@@]21C (stereo not given in full),"inconclusive: 14.6 µM [cytotoxic, partial curve]","inconclusive: 13 µM [cytotoxic, partial curve]"
CCC(C)C(=O)OC1C(C)C2(O)C(C=C(CO)CC3(O)C(=O)C(C)=CC32)C2C(C)(C)C12OC(=O)C(C)C (stereo not given),"inconclusive: 0.0282 µM [cytotoxic, full curve]","inconclusive: 0.0282 µM [cytotoxic, full curve]"
